{"source": "PubChem BioAssay AID924", "about": "(National Center for Advancing Translational Sciences (NCATS), 2007)", "note": "The whole screen tested about 130,000 compounds, of which about 1,200 (0.92%) were called active. The inconclusive results got no clear call from the source; some entries with a clear call stand among them for comparison. The call rests on the fitted dose curve; in most records, active means well fitted cell-killing curve with a large enough effect; inconclusive means small, poorly fitted or top-dose-only effect; inactive means no such curve, though single readings can be large or run the other way. Potencies beside an inconclusive call are fits to weak or partial responses and may not hold up."}
{"test": "qHTS Screen for Compounds that Selectively Target Cancer Cells with p53 Mutations: Cytotoxicity of p53ts Cells at the Permissive Temperature; further: nearly all actives have a fitted effect of over 55% in size; further: potency means the concentration at half of the fitted maximal effect; tags describe the fitted curve by direction and shape;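 on activity change, negative = cytotoxicity: 0% = DMSO and -100% = full killing by reference compound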", "settings": "H1299-p53A138V at 32C, ATP luminescence viability, 24 h; activity change, negative = cytotoxicity: at 46.1 µM (top of the series)", "how_it_was_run": "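Cells: H1299 p53ts (A138V), 600/well, pre-incubated 16–30 h at 37C. Cpd up to 46 uM, 24 h, 32C. Readout: ATPlite luminescence, 20 min RT. Normalization: DMSO vs tamoxifen 100 uM. AC50 by Hill equation.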"}
{"molecule": "CCOc1ccc(C2C(C(N)=O)=C(C)Nc3nc(-c4ccc(OC)cc4)nn32)cc1", "note": "(centres undefined)", "Potency": "inconclusive: 12.6 µM [cytotoxic, single point]"}
{"molecule": "COc1ccccc1Nc1nn2c(=O)c3ccc(C(=O)NC4CCC(C)CC4)cc3nc2s1", "note": "(centres undefined)", "Potency": "inconclusive: 10 µM [cytotoxic, partial curve]"}
{"molecule": "CCN(C(=O)CSc1nc(-c2ccccc2)no1)c1cccc(C)c1", "activity change, negative = cytotoxicity": "inactive: 29%"}
{"molecule": "COc1ccc(-c2nc(SCC(=O)Nc3cccc(C(C)=O)c3)n[nH]2)cc1", "Potency": "inconclusive: 22.4 µM [cytotoxic, partial curve, poor fit]"}
{"molecule": "Fc1ccc(-c2noc3ncnc(N4CCCCC4)c23)cc1", "activity change, negative = cytotoxicity": "inactive: 3.52%"}
{"molecule": "COc1ccccc1CNC(=O)CCCn1c(=O)c2cccn2c2ccccc21", "Potency": "inconclusive: 12.6 µM [cytotoxic, single point]"}
{"molecule": "Cc1ccc(S(=O)(=O)N[C@@H](Cc2ccccc2)C(=O)CCl)cc1", "Potency": "active: 6.31 µM"}
{"molecule": "O=C(CCCCn1c(=O)c2ccccc2n(CC(=O)Nc2cccc(F)c2)c1=O)NCc1ccccc1Cl", "activity change, negative = cytotoxicity": "inactive: 7.25%"}
{"molecule": "CN(C)c1cccc(C(=O)Nc2ccc(-c3nc4ccccc4s3)cc2)c1", "Potency": "inconclusive: 7.94 µM [cytotoxic, partial curve]"}
{"molecule": "O=C(CSc1nc2c(oc3ccccc32)c(=O)[nH]1)Nc1cccc(Cl)c1", "Potency": "active: 10 µM"}
{"molecule": "Cn1c(C(=O)N2CCC(C(=O)NCCc3ccc(S(N)(=O)=O)cc3)CC2)cc2sccc21", "activity change, negative = cytotoxicity": "inactive: 2.81%"}
{"molecule": "Cc1c(Cl)cccc1NC(=O)CSc1cc(-c2ccccc2)ncn1", "Potency": "inconclusive: 6.31 µM [cytotoxic, single point]"}
{"molecule": "Cc1ccc(NC(=O)Cn2c(=O)n(CCc3ccccc3)c(=O)c3c4c(sc32)CCCC4)cc1C", "activity change, negative = cytotoxicity": "inactive: 9.2%"}
{"molecule": "COCCn1c(-c2ccc(Cl)cc2)cnc1SCC(=O)NCc1cccs1", "Potency": "inconclusive: 12.6 µM [cytotoxic, single point]"}
{"molecule": "CCn1c(SCC(=O)c2ccc3c(c2)OCCO3)nnc1-c1ccco1", "Potency": "inconclusive: 20 µM [cytotoxic, single point]"}
{"molecule": "Cc1ccc(S(=O)(=O)Nc2ccc3c(c2)c(C(=O)OC(C)C)c(C)n3S(=O)(=O)c2ccc(C)cc2)cc1", "activity change, negative = cytotoxicity": "inactive: 14.2%"}
{"molecule": "CC1(C)C=Cc2c(cc3occ(-c4ccc5c(c4)OCO5)c(=O)c3c2O)O1", "Potency": "inconclusive: 10 µM [cytotoxic, partial curve]"}
{"molecule": "Oc1ccc(Nc2nc(-c3ccc(Cl)cc3)nc3ccccc23)cc1", "Potency": "inconclusive: 31.6 µM [cytotoxic, single point]"}
{"molecule": "Cc1cccc(C)c1N1C(=O)CC(N(O)c2ccccc2)C1=O", "note": "(centres undefined)", "Potency": "inconclusive: 31.6 µM [cytotoxic, single point]"}
{"molecule": "CC1CCCN(c2csc3ccccc3c2=O)C1", "note": "(centres undefined)", "Potency": "inconclusive: 15.8 µM [cytotoxic, single point]"}
{"molecule": "O=c1/c(=C\\c2ccc3c(c2)OCO3)sc2n1CCCN=2", "Potency": "active: 12.6 µM"}
{"molecule": "COc1ccc(-c2nn(C)c3sc(C(=O)N4CCOCC4)cc23)cc1OC", "activity change, negative = cytotoxicity": "inactive: 7.6%"}
{"molecule": "COc1ccc2sc(NC(=O)c3ccco3)nc2c1", "Potency": "active: 10 µM"}
{"molecule": "COc1ccc(-c2nc(-c3ccc(NC(=O)c4ccc(Br)o4)cc3)no2)cc1OC", "Potency": "inconclusive: 12.6 µM [cytotoxic, single point]"}
{"molecule": "CCN(CC)c1ccc(NC(=O)Nc2cccc(C(C)=O)c2)cc1", "Potency": "active: 12.6 µM"}
{"molecule": "CC(=O)N[C@@H](Cc1c[nH]c2ccccc12)C(=O)OCc1cc(C(F)(F)F)cc(C(F)(F)F)c1", "activity change, negative = cytotoxicity": "inconclusive: -31.1% [cytotoxic]"}
{"molecule": "Oc1cccc2ccc(Nc3ccccn3)nc12", "Potency": "active: 15.8 µM"}
{"molecule": "CCN(CC)C(=O)c1ccc(C)c(Br)c1", "activity change, negative = cytotoxicity": "inactive: 4.16%"}
{"molecule": "Cc1ccc(OCC(=O)Nc2ccc(O)c(-c3nc4ccccc4o3)c2)cc1", "Potency": "inconclusive: 25.1 µM [cytotoxic, single point]"}
{"molecule": "CC(C)(C)c1csc(NC2=NS(=O)(=O)c3ccccc32)n1", "Potency": "active: 12.6 µM"}
{"molecule": "COc1ccc(-n2c(SCc3nnc(-c4ccccc4)o3)nnc2-c2ccccc2)cc1", "activity change, negative = cytotoxicity": "inactive: 5.8%"}
{"molecule": "CCCN1C(=O)c2ccccc2CC1(C)C(=O)NC1CCCCC1", "note": "(centres undefined)", "activity change, negative = cytotoxicity": "inactive: -2.02%"}
{"molecule": "CCC(CO)Nc1ncnc2c1cnn2-c1ccc(C)cc1", "note": "(centres undefined)", "Potency": "inconclusive: 12.6 µM [cytotoxic, partial curve]"}
{"molecule": "O=C(/C=C/Nc1ccc(F)cc1)c1ccco1", "Potency": "active: 7.94 µM"}
{"molecule": "CCNc1nnc(-c2ccc(C)cc2)o1", "Potency": "inconclusive: 12.6 µM [cytotoxic, partial curve]"}
{"molecule": "COc1ccc(N2C(=O)c3ccccc3NC23CCCCC3)cc1", "Potency": "inconclusive: 12.6 µM [cytotoxic, single point]"}
{"molecule": "N#C/C(=C\\c1c[nH]c2ccccc12)C(=O)c1ccc(O)c(O)c1", "Potency": "inconclusive: 12.6 µM [cytotoxic, single point]"}
{"molecule": "Cc1ccc(-c2nc(CS(=O)(=O)CC(=O)N3CC(C)CC(C)C3)c(C)o2)cc1", "note": "(centres undefined)", "activity change, negative = cytotoxicity": "inactive: 4.28%"}
{"molecule": "COc1ccc2c(c1)-c1nc(NC(=O)c3ccc(C)cc3)sc1CC2", "Potency": "inconclusive: 10 µM [cytotoxic, partial curve]"}
{"molecule": "CCc1ccc(NC(=O)C(=O)NCC(c2cccnc2)N2CCN(C)CC2)cc1", "note": "(centres undefined)", "Potency": "inconclusive: 25.1 µM [cytotoxic, single point]"}
{"molecule": "Cc1cc(C)n(-c2ccc(C(=O)Nc3sccc3C(N)=O)cc2)n1", "Potency": "inconclusive: 12.6 µM [cytotoxic, partial curve]"}
{"molecule": "COc1ccc(C(=O)Nc2cc(C)on2)cc1", "Potency": "active: 7.94 µM"}
{"molecule": "CC1CCC(NC(=O)c2cc3c(s2)CS(=O)(=O)C3)CC1", "note": "(centres undefined)", "Potency": "inconclusive: 0.0398 µM [cytotoxic, full curve, poor fit]"}
{"molecule": "COc1cccc(CNC(=O)c2ccc3c(c2)nc2n3CCCCC2)c1OC", "Potency": "inconclusive: 12.6 µM [cytotoxic, single point]"}
{"molecule": "CC1CCc2nc(NC(=O)C3CCCO3)sc2C1", "note": "(centres undefined)", "Potency": "active: 10 µM"}
{"molecule": "CN1CCN(c2ncc3nc(CCc4ccccc4)c(=O)n(CCc4ccccc4)c3n2)CC1", "Potency": "inconclusive: 25.1 µM [cytotoxic, single point]"}
{"molecule": "Cc1nc2c(C(=O)NCCc3ccc(Cl)cc3)c[nH]n2c(=O)c1Cc1ccccc1F", "Potency": "inconclusive: 25.1 µM [cytotoxic, single point]"}
{"molecule": "COc1ccc(-c2csc(N3CCN(C(=O)c4ccco4)CC3)n2)cc1", "Potency": "inconclusive: 25.1 µM [cytotoxic, single point]"}
{"molecule": "COc1ccc(S(=O)(=O)NCc2ccc3c(c2)CCN3C(=O)c2ccc(C)cc2)cc1Cl", "activity change, negative = cytotoxicity": "inactive: 28.5%"}
{"molecule": "CC1(C)Cn2c(nnc2-c2cccc(O)c2)S1", "activity change, negative = cytotoxicity": "inactive: 1.88%"}
{"molecule": "OCCN1CCN(CC/C=C2\\c3ccccc3Sc3ccc(C(F)(F)F)cc32)CC1", "Potency": "inconclusive: 20 µM [cytotoxic, single point]"}
{"molecule": "Cn1cnc(S(=O)(=O)N2CCC(C(=O)N3CCN(c4ccc(Cl)cc4)CC3)CC2)c1", "activity change, negative = cytotoxicity": "inactive: -3.32%"}
{"molecule": "N#Cc1ccc(OC(=O)c2cc(-c3ccc4c(c3)OCCO4)on2)cc1", "Potency": "inconclusive: 7.94 µM [cytotoxic, partial curve]"}
{"molecule": "CCOc1ccc(Nc2oc(-c3ccc(COc4ccccc4C)o3)nc2C#N)cc1", "Potency": "inconclusive: 4.47 µM [cytotoxic, full curve, poor fit]"}
{"molecule": "CCCCOC(=O)c1ccc(Nc2nc3ccccc3c3nnc(C)n23)cc1", "activity change, negative = cytotoxicity": "inactive: -8.4%"}
{"molecule": "CC(C)CC(=O)Nc1ccc2oc(-c3ccncc3)nc2c1", "Potency": "inconclusive: 10 µM [cytotoxic, partial curve]"}
{"molecule": "O=c1c(-c2ccc3c(c2)OCCO3)coc2cc(O)cc(O)c12", "Potency": "active: 12.6 µM"}
{"molecule": "CCOC(=O)C1CCN(C(=O)CSc2n[nH]c(-c3ccccc3Cl)n2)CC1", "activity change, negative = cytotoxicity": "inactive: -2.49%"}
{"molecule": "CN1C(=O)CSc2ccc(NC(=O)N3CCc4ccccc43)cc21", "Potency": "active: 10 µM"}
{"molecule": "C=C1C(=O)C23C(O)C1CCC2[C@]12COC3(O)C(O)C1C(C)(C)CC[C@H]2O", "note": "(some centres undefined)", "Potency": "inconclusive: 1 µM [cytotoxic, single point]"}
{"molecule": "Cc1cc(Cc2cc(C)c(N)cc2N)c(N)cc1N", "activity change, negative = cytotoxicity": "inactive: -5.49% [at 9.22 µM]"}
{"molecule": "COc1cccc(-c2cc(C(=O)Nc3ccccc3SC)no2)c1", "activity change, negative = cytotoxicity": "inactive: -9.08%"}
{"molecule": "CCCc1ccc(-c2ccc(C(=O)O)cc2)nc1", "Potency": "inconclusive: 20 µM [cytotoxic, partial curve, poor fit]"}
{"molecule": "Oc1ccc(CN2CCN(Cc3ccccc3)CC2)c2cccnc12", "Potency": "inconclusive: 12.6 µM [cytotoxic, single point]"}
{"molecule": "Cc1cccc(CCNC(=O)c2ccc3c(c2)nc2n3CCOC2)c1", "Potency": "inconclusive: 11.2 µM [cytotoxic, partial curve]"}
{"molecule": "CCOC(=O)c1ccc(Nc2nc(N)c3cc(OC)c(OC)cc3n2)cc1", "Potency": "inconclusive: 31.6 µM [cytotoxic, single point]"}
{"molecule": "COc1ccc(-c2c3c(=O)n(C)c(=O)n(C)c3c3nnc4ccccc4n23)cc1", "activity change, negative = cytotoxicity": "inactive: 5.94%"}
{"molecule": "O=C(CC(Nc1ccc(F)cc1)C(=O)O)c1ccccc1", "note": "(centres undefined)", "Potency": "inconclusive: 10 µM [cytotoxic, partial curve]"}
{"molecule": "CCOC(=O)c1cnn(-c2ccccn2)c1N", "Potency": "inconclusive: 12.6 µM [cytotoxic, partial curve]"}
{"molecule": "Cc1cc2n(n1)C(c1ccc(N(C)C)cc1)Nc1ccccc1-2", "note": "(centres undefined)", "Potency": "inconclusive: 15.8 µM [cytotoxic, single point]"}
{"molecule": "OC(CN1CCNCC1)Cn1c2ccc(Br)cc2c2cc(Br)ccc21", "note": "(centres undefined)", "Potency": "inconclusive: 25.1 µM [cytotoxic, single point]"}
{"molecule": "O=c1c2[nH]c3ccccc3c2ncn1CCN1CCCCC1", "Potency": "inconclusive: 25.1 µM [cytotoxic, single point]"}
{"molecule": "CS(=O)(=O)N(CCc1ccccc1)CC(=O)NCc1ccc2c(c1)OCO2", "activity change, negative = cytotoxicity": "inactive: 8.91%"}
{"molecule": "CCOc1ccccc1NS(=O)(=O)c1ccc2oc(=O)c3ncn(C)c3c2c1", "Potency": "inconclusive: 25.1 µM [cytotoxic, single point]"}
